The record followed here is article doi:10.1101/798769 (bioRxiv, 2019).

For assay [1], the target named is T1, NPDP peptide (PfCSP aa 101-116) (Plasmodium falciparum NF54).
T1 chain: NPDPNANPNVDPNANP
The experiment in a line: SPR. Background: Surface plasmon resonance follows binding to a sensor surface in real time, without labels.

Assay [2] addresses T2, NANP trimer peptide (NANP3) (Plasmodium falciparum).
T2 chain: NANPNANPNANP
The experiment in a line: ITC. (In general: Isothermal titration calorimetry measures the heat released or taken up as one component is titrated into another.)

B1: mAb 2243 (recombinant human IgG1, kappa) (antibody, V domains shown)
VH: QVQLVESGGGVVQPGRSLRLSCAASGFTFSSYGMHWVRQAPGKGLEWVAVIWYDGSNKYYADSVKGRFTISRDNSKNTLYLQMNSLRAEDTAVYYCARALDDASSTSCCALDYWGQGTLVTVSS
VL: [skipping about 100 residues]TFGPGTKVDIK
As to B1, in assay [1], the binding result is given as “binds”.

B2: Fab fragment of mAb 2243 (Fab, V domains shown)
VH: B1 VH
VL: [skipping about 100 residues]TFGPGTKVDIK
Turning to B2, the binding result in assay [2] was “binds”.
